US4707468A, “Polypeptide” (Eisai Co., Ltd., priority 1984, dated 1987)
Not every detail of the peptide structures is certain; ends, links or a residue may be inferred. Where a SMILES comes first, the peptide text is derived from it. Bridges are numbered along the chain shown (N, C = ends). [ ]: non-standard residue; d: D form. Phe(4-NO2) = N[C@@H](Cc1ccc([N+](=O)[O-])cc1)C(=O)O; NMeY = CN[C@@H](Cc1ccc(O)cc1)C(=O)O; NMeR = CN[C@@H](CCCNC(=N)N)C(=O)O; Met(O) = CS(=O)CC[C@H](N)C(=O)O

Legend:
rabbit vas deferens = assay: Opioid activity, rabbit vas deferens method (inhibition of electrically stimulated contraction); format: cell-based; settings: electric stimulation 0.1 Hz, 1 ms, 90 volt
Protocol: The opioid activities of the compounds of the invention were examined by the method using rabbit vas deferens according to T. Oka, K. Negishi, M. Suda, T. Matsumiya, T. Inaza and M. Ueki, "Europ. J. Pharmacol.", Vol. 73, 235 (1980). In this test, mature male rabbits were sacrificed by introducing air into an […]. Immediately after death, a laparotomy was conducted and right and left vasa deferens were removed. The semen was pressed out of the ducts into Ringer's solution. A part of each duct was cut ([…] long from an end of the prostrate gland side). The pieces of the deferentaial ducts were suspened by means of a thread in a 6 ml constant-temperature glass cell and stimulated electrioally with an electric stimulation device having platinum electrodes under conditions of 0.1 Hz, 1 ms and 90 volt. A contraction due to the electric stimulation was recorded through a transducer.
The opioid activity was determined on the basis of the inhibition of the contraction due to the electric stimulation.
The results are shown in Table 3 in terms of 50% inhibitation concentration (IC50).
The following compounds obtained in the examples ere tested in the same way as described above.

Male ddY strain mice = assay: Analgesic test, tail pinch test in mice; format: in vivo; settings: latency of more than 6 sec as criterion for analgesia; for Tail Pinch Method (i.v.) ED50: intravenous injection; for Tail Pinch (S.C.) ED50: subcutaneous injection

CCNC(=O)[C@@H](CC(C)C)NC(=O)[C@H](CCCNC(=N)N)N(C)C(=O)[C@H](CCCNC(=N)N)NC(=O)[C@H](CC(C)C)NC(=O)[C@H](Cc1ccccc1)NC(=O)CNC(=O)CNC(=O)[C@H](Cc1ccc(O)cc1)NC [Example 1, CH3 Tyr-Gly-Gly-Phe-Leu-Arg-CH3 Arg-D-Leu-NHC2 H5]
IC50 (rabbit vas deferens): 3.5 nM
Tail Pinch Method (i.v.) ED50 (Male ddY strain mice): 0.75 mg/kg
Tail Pinch (S.C.) ED50 (Male ddY strain mice): 1.0 mg/kg

CN[C@@H](Cc1ccc(O)cc1)C(=O)NCC(=O)NCC(=O)N[C@@H](Cc1ccccc1)C(=O)N[C@@H](CC(C)C)C(=O)N[C@@H](CCCNC(=N)N)C(=O)N[C@@H](CCCNC(=N)N)C(N)=O [Example 3, CH3 TyrGlyGlyPheLeuArgArgNH2]
IC50 (rabbit vas deferens): 6.03 nM

CN[C@@H](Cc1ccc(O)cc1)C(=O)NCC(=O)NCC(=O)N[C@@H](Cc1ccccc1)C(=O)N[C@@H](CC(C)C)C(=O)N[C@@H](CCCNC(=N)N)C(=O)N[C@@H](CCCNC(=N)N)C(=O)N[C@H](CC(C)C)C(=O)O [Example 5, CH3 TyrGlyGlyPheLeuArgArgDLeuOH]
Tail Pinch Method (i.v.) ED50 (Male ddY strain mice): 3.4 mg/kg

CCOC(=O)[C@@H](CC(C)C)NC(=O)[C@H](CCCNC(=N)N)NC(=O)[C@H](CCCNC(=N)N)NC(=O)[C@H](CC(C)C)NC(=O)[C@H](Cc1ccccc1)NC(=O)CNC(=O)CNC(=O)[C@H](Cc1ccc(O)cc1)NC [Example 6, CH3 TyrGlyGlyPheLeuArgArgDLeuOC2 H5]
IC50 (rabbit vas deferens): 4.5 nM
Tail Pinch Method (i.v.) ED50 (Male ddY strain mice): 4.3 mg/kg

CN[C@@H](Cc1ccc(O)cc1)C(=O)NCC(=O)NCC(=O)N[C@@H](Cc1ccccc1)C(=O)N[C@@H](CC(C)C)C(=O)N[C@@H](CCCNC(=N)N)C(=O)N[C@@H](CCCNC(=N)N)C(=O)N[C@H](CC(C)C)C(N)=O [Example 7, CH3 TyrGlyGlyPheLeuArgArgDLeuNH2]
Tail Pinch Method (i.v.) ED50 (Male ddY strain mice): 3.9 mg/kg

CCNC(=O)[C@@H](CC(C)C)NC(=O)[C@H](CCCNC(=N)N)NC(=O)[C@H](CCCNC(=N)N)NC(=O)[C@H](CC(C)C)NC(=O)[C@H](Cc1ccccc1)NC(=O)CNC(=O)CNC(=O)[C@H](Cc1ccc(O)cc1)NC [Example 8, CH3 TyrGlyGlyPheLeuArgArgDLeuNHC2 H5]
IC50 (rabbit vas deferens): 6.2 nM
Tail Pinch Method (i.v.) ED50 (Male ddY strain mice): 3.3 mg/kg

CN[C@@H](Cc1ccc(O)cc1)C(=O)NCC(=O)NCC(=O)N[C@@H](Cc1ccc([N+](=O)[O-])cc1)C(=O)N[C@@H](CC(C)C)C(=O)N[C@@H](CCCNC(=N)N)C(=O)N[C@@H](CCCNC(=N)N)C(=O)N[C@H](CC(C)C)C(N)=O [Example 10, CH3 TyrGlyGlyPhe(p-NO 2)LeuArgArgDLeuNH2]
Tail Pinch Method (i.v.) ED50 (Male ddY strain mice): 1.2 mg/kg

CN[C@@H](Cc1ccc(O)cc1)C(=O)NCC(=O)NCC(=O)N[C@@H](Cc1ccccc1)C(=O)N[C@@H](CC(C)C)C(=O)N[C@@H](CCCNC(=N)N)C(=O)N(C)[C@@H](CCCNC(=N)N)C(=O)N[C@H](CC(C)C)C(N)=O [Example 19, CH3 TyrGlyGlyPheLeuArgCH3 ArgDLeuNH2]
IC50 (rabbit vas deferens): 2.8 nM
Tail Pinch Method (i.v.) ED50 (Male ddY strain mice): 2.0 mg/kg

CCNC(=O)[C@@H](CC(C)C)NC(=O)[C@H](CCCNC(=N)N)N(C)C(=O)[C@H](CCCNC(=N)N)NC(=O)[C@H](CC(C)C)NC(=O)[C@H](Cc1ccc([N+](=O)[O-])cc1)NC(=O)CNC(=O)CNC(=O)[C@H](Cc1ccc(O)cc1)NC [Example 21, CH3 TyrGlyGlyPhe(p-NO2)LeuArgCH3 ArgDLeuNHC2 H5]
Tail Pinch Method (i.v.) ED50 (Male ddY strain mice): 0.8 mg/kg
Tail Pinch (S.C.) ED50 (Male ddY strain mice): 0.8 mg/kg

CN[C@@H](Cc1ccc(O)cc1)C(=O)NCC(=O)NCC(=O)N[C@@H](Cc1ccccc1)C(=O)N[C@@H](CC(C)C)C(=O)N[C@@H](CCCCN)C(=O)N(C)[C@@H](CCCNC(=N)N)C(=O)N[C@H](CC(C)C)C(N)=O [Example 22, CH3 TyrGlyGlyPheLeuLysCH3 ArgDLeuNH2] (H-[NMeY]GGFLK[NMeR][dL]-NH2)
Tail Pinch Method (i.v.) ED50 (Male ddY strain mice): 3.0 mg/kg

CCNC(=O)[C@@H](CC(C)C)NC(=O)[C@H](CCCNC(=N)N)N(C)C(=O)[C@H](CCCNC(=N)N)NC(=O)[C@@H]1CSSC[C@@H](NC(=O)[C@@H](N)Cc2ccc(O)cc2)C(=O)NCC(=O)N[C@@H](Cc2ccccc2)C(=O)N1 [Example 24] (H-Y[dC]GFCR[NMeR][dL]-NHEt; disulfide 2-5)
IC50 (rabbit vas deferens): 0.08 nM
Tail Pinch Method (i.v.) ED50 (Male ddY strain mice): 0.22 mg/kg
Tail Pinch (S.C.) ED50 (Male ddY strain mice): 0.32 mg/kg

CN[C@@H](Cc1ccc(O)cc1)C(=O)NCC(=O)NCC(=O)N[C@@H](Cc1ccccc1)C(=O)N[C@@H](CC(C)C)C(=O)N[C@@H](CCCNC(=N)N)C(=O)N[C@@H](CCCNC(=N)N)C(=O)N[C@H](CC(C)C)C(=O)N[C@@H](CCCNC(=N)N)C(N)=O [Example 25, CH3 TyrGlyGlyPheLeuArgArgDLeuArgNH2] (H-[NMeY]GGFLRR[dL]R-NH2)
IC50 (rabbit vas deferens): 0.58 nM
Tail Pinch Method (i.v.) ED50 (Male ddY strain mice): 1.8 mg/kg

CCNC(=O)[C@H](CCCNC(=N)N)NC(=O)[C@@H](CC(C)C)NC(=O)[C@H](CCCNC(=N)N)N(C)C(=O)[C@H](CCCNC(=N)N)NC(=O)[C@H](CC(C)C)NC(=O)[C@H](Cc1ccccc1)NC(=O)CNC(=O)CNC(=O)[C@H](Cc1ccc(O)cc1)NC [Example 27, CH3 TyrGlyGlyPheLeuArgCH3 ArgDLeuArgNHC2 H5] (H-[NMeY]GGFLR[NMeR][dL]R-NHEt)
IC50 (rabbit vas deferens): 2 nM
Tail Pinch Method (i.v.) ED50 (Male ddY strain mice): 0.7 mg/kg
Tail Pinch (S.C.) ED50 (Male ddY strain mice): 0.8 mg/kg

CCNC(=O)[C@H](CCCNC(=N)N)NC(=O)[C@@H](CC(C)C)NC(=O)[C@H](CCCNC(=N)N)N(C)C(=O)[C@H](CCCNC(=N)N)NC(=O)[C@H](CC(C)C)NC(=O)[C@H](Cc1ccc([N+](=O)[O-])cc1)NC(=O)CNC(=O)CNC(=O)[C@H](Cc1ccc(O)cc1)NC [Example 28, CH3 TyrGlyGlyPhe(p-NO2)LeuArgCH3 ArgDLeuArgNHC2 H5] (H-[NMeY]GG[Phe(4-NO2)]LR[NMeR][dL]R-NHEt)
IC50 (rabbit vas deferens): 6.5 nM
Tail Pinch Method (i.v.) ED50 (Male ddY strain mice): 0.7 mg/kg
Tail Pinch (S.C.) ED50 (Male ddY strain mice): 1.5 mg/kg

CN[C@@H](Cc1ccc(O)cc1)C(=O)NCC(=O)NCC(=O)N[C@@H](Cc1ccccc1)C(=O)N[C@@H](CC[S+](C)[O-])C(=O)N[C@@H](CCCNC(=N)N)C(=O)N(C)[C@@H](CCCNC(=N)N)C(=O)N[C@H](CC(C)C)C(=O)N[C@@H](CCCNC(=N)N)C(N)=O (stereo partly drawn) [Example 29, CH3 TyrGlyGlyPheMet(O)ArgCH3 ArgDLeuArgNH2] (H-[NMeY]GGF[Met(O)]R[NMeR][dL]R-NH2)
Tail Pinch Method (i.v.) ED50 (Male ddY strain mice): 2.0 mg/kg

CN[C@@H](Cc1ccc(O)cc1)C(=O)NCC(=O)NCC(=O)N[C@@H](Cc1ccccc1)C(=O)N[C@@H](CC(C)C)C(=O)N[C@@H](CCCNC(=N)N)C(=O)N(C)[C@@H](CCCNC(=N)N)C(=O)N[C@H](C)C(=O)O [Example 30, CH3 Tyr-Gly-Gly-Phe-Leu-Arg-CH3 Arg-D-Ala-OH]
IC50 (rabbit vas deferens): 17.8 nM
Tail Pinch Method (i.v.) ED50 (Male ddY strain mice): 0.7 mg/kg
Tail Pinch (S.C.) ED50 (Male ddY strain mice): 1.9 mg/kg

CN[C@@H](Cc1ccc(O)cc1)C(=O)NCC(=O)NCC(=O)N[C@@H](Cc1ccccc1)C(=O)N[C@@H](CC(C)C)C(=O)N[C@@H](CCCNC(=N)N)C(=O)N(C)[C@@H](CCCNC(=N)N)C(=O)N(C)[C@@H](C)C(=O)O [Example 31, CH3 Tyr-Gly-Gly-Phe-Leu-Arg-CH3 Arg-CH3 Ala-OH]
IC50 (rabbit vas deferens): 24.5 nM
Tail Pinch Method (i.v.) ED50 (Male ddY strain mice): 0.5 mg/kg
Tail Pinch (S.C.) ED50 (Male ddY strain mice): 1.2 mg/kg

CN[C@@H](Cc1ccc(O)cc1)C(=O)NCC(=O)NCC(=O)N[C@@H](Cc1ccccc1)C(=O)N[C@@H](CC(C)C)C(=O)N[C@@H](CCCNC(=N)N)C(=O)N(C)[C@@H](CCCNC(=N)N)C(=O)N[C@H](CC(C)C)C(=O)O [Example 34, CH3 Tyr--Gly--Gly--Phe--Leu--Arg--CH3 Arg--D--Leu--OH]
Tail Pinch Method (i.v.) ED50 (Male ddY strain mice): 2.1 mg/kg
Tail Pinch (S.C.) ED50 (Male ddY strain mice): 0.9 mg/kg

CC[C@H](C)[C@@H](C(=O)O)N(C)C(=O)[C@H](CCCNC(=N)N)N(C)C(=O)[C@H](CCCNC(=N)N)NC(=O)[C@H](CC(C)C)NC(=O)[C@H](Cc1ccccc1)NC(=O)CNC(=O)CNC(=O)[C@H](Cc1ccc(O)cc1)NC [Example 36, CH3 Tyr--Gly--Gly--Phe--Leu--Arg--CH3 Arg--CH3 Ile--OH]
IC50 (rabbit vas deferens): 11.2 nM
Tail Pinch Method (i.v.) ED50 (Male ddY strain mice): 0.2 mg/kg
Tail Pinch (S.C.) ED50 (Male ddY strain mice): 0.4 mg/kg

CN[C@@H](Cc1ccc(O)cc1)C(=O)NCC(=O)NCC(=O)N[C@@H](Cc1ccccc1)C(=O)N[C@@H](CC(C)C)C(=O)N[C@@H](CCCNC(=N)N)C(=O)N(C)[C@@H](CCCNC(=N)N)C(=O)NCCC(=O)O [Example 38, CH3 Tyr--Gly--Gly--Phe--Leu--Arg=CH3 Arg--β-Ala--OH]
Tail Pinch Method (i.v.) ED50 (Male ddY strain mice): 1.7 mg/kg
Tail Pinch (S.C.) ED50 (Male ddY strain mice): 0.6 mg/kg

CC[C@H](C)[C@H](NC(=O)[C@H](CCCNC(=N)N)NC(=O)[C@H](CCCNC(=N)N)NC(=O)[C@H](CC(C)C)NC(=O)[C@H](Cc1ccccc1)NC(=O)CNC(=O)CNC(=O)[C@@H](N)Cc1ccc(O)cc1)C(=O)N[C@@H](CCCNC(=N)N)C(=O)N1CCC[C@H]1C(=O)N[C@@H](CCCCN)C(=O)N[C@@H](CC(C)C)C(=O)N[C@@H](CCCCN)C(=O)O [dynorphin (1-13), reference compound]
Tail Pinch Method (i.v.) ED50 (Male ddY strain mice): > 25.0 mg/kg
